# Measurements taken from the supplement of paper PMC11417369.
# This is one part of the list.
# Tested on: PfHDP1 homeodomain (GST-tagged)
# Assay: gcPBM binding intensity (ln(normalized median fluorescence intensity)); higher = stronger DNA binding
# How it was run: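 DNA-binding domains from P. falciparum, fused to GST and produced in E. coli, were put on an Agilent 4 × 180k double-stranded probe array for 1 h in 1× PBS holding 1% milk, 0.2 mg/ml BSA, 0.5% salmon testes DNA and 0.03% Triton X-100. Probes were primer-extended, 36 bp long and drawn from intergenic genomic regions, with negative controls included. After Alexa488 anti-GST antibody detection and a 488 nm scan, binding intensity was set as the highest Masliner-normalised natural-log median intensity across replicate spots of either probe orientation.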
row,Sequence,gcPBM binding intensity (ln)
1,TAAATTATAATAAATACACACAAATTATAATTCTAT [CACACA_site3942],6.65
2,CATTTTATAAAAAGCACACATATAGTTATATGCACA [CACACA_site3691],8.73
3,TATATATATATACATTGTACATTATTGATTATAACA [XGTACX_site1678],9.09
4,TTTGAATCCTTATATACACACATTATATAATATTAT [CACACA_site4472],6.91
5,TTTTATATATTATATACACACATATATATATATATA [CACACA_site2999],9.3
6,TGTATGTTTATTTATCGTACATATATATATATATAT [XGTACX_site7315],9.33
7,AATAAATAAATATATACACACATATATCTGTACATA [CACACA_site9034],6.66
8,AGGAAAAAAAAAATGTGTACTTAAAAAAAAAAAATT [XGTACX_site1471],6.29
9,TTTTATCATATTTATTGTACACATAATATACATATC [XGTACX_site1145],7.35
10,CGTTTATATTTTAACTGTACTCAAAAAGTGCATTGT [XGTACX_site6072],7.29
11,TGTTCATTTATTTACTTACACACTTTATATATGTGG [CACACA_site1410],6.94
12,TAAAAGTAGATATATACACACATAAATATAGATGTA [CACACA_site6457],6.27
13,ACATATTTCCAATAATGTACATACAAAATAAGAATG [XGTACX_site2659],6.68
14,AATATTTTATATAAATGTACATTTATGAATAATATA [XGTACX_site8477],6.62
15,GTGCTAAAAGTATATGCACACACATATATATGCACA [CACACA_site8472],10.6
16,ACAAAGTAAAATAATGCATGTAGGTATACATAATTA [TGCATGCA_site607],6.42
17,AGTTATGCATCTTAGGTGCTATGCCCAATTTATTTT [GTGCAC_site9977],7.24
18,AACTTACTCTTTACAAGTACGTAAAAGAAATAGAAA [XGTACX_site1782],6.13
19,AAAAAAAAAAAAAATGCACACATATATTTCCATATA [CACACA_site8416],9.18
20,TTGCCTTAAAAAGGAACACACATGCTTTTTTTAGTT [CACACA_site938],6.13
21,AATAAAGCAATAAATACACACATATATATATATATA [CACACA_site2934],9.38
22,TATATAAAAAATAGGTGGTCAACTTAAATATTTTAT [XGTACX_site4495],6.46

row,Sequence,gcPBM binding intensity (ln)
1,AAAAATGTGCACACGCGTACACACAAAAAAAGAAAA [XGTACX_site4097],10.3
2,AAAATATATCAAAATAGTACATAATTTTTTAAGAAT [XGTACX_site3515],6.41
3,TTTTTTTCTTTTTTTTGTACTCATACATACTATCAT [XGTACX_site607],6.42
4,GTAGTAATAAATCTAGTGCATTATATATAACAAAAA [GTGCAC_site9803],9.9
5,TTACTATGTAAACACACATGCAATATATGTTAAGCC [TGCATGCA_site253],6.57
6,TTATATGAAAATTATTGTACAATCTATAAAAAAAAT [XGTACX_site4194],6.85
7,GTAATTATATACATACGTACATACACATATGTATAT [XGTACX_site4149],6.55
8,TAATTTTTGTAAACAGTCATGGATTCAAAAAAAAAA [CACACA_negctrl_site593],6.04
9,GGATATATGAAACATATTGAAAAACCGTTTAGTACA [CACACA_negctrl_site132],6.39
10,AAGGAAATAAGAAAAAGTACACATAAGTATATAACA [XGTACX_site1173],6.47
11,TAATAATCAAACTATACACACATAAATAAATATATA [CACACA_site156],6.52
12,CACGTGTAAATAGTTTTACAATATCTCGATATGTAT [CACACA_negctrl_site785],6.34
13,TATTGCCCTTGACACACACACATATAAATAAATATA [CACACA_site7220],7.07
14,TTAAACCGTGGGAGCACACACACACCCAGACACATA [CACACA_site4337],6.4
15,AAATATGTATATATATATATATATATATATATATAT [GTGCAC_negctrl_site335],9.43
16,TTATGGGACTCAAATACATGCAAAAATATTTTTAAG [TGCATGCA_site559],6.74
17,TAAGGTTAAATAATATGTACATATTATTATATATAT [XGTACX_site6953],7.01
18,AAATATAATAAAATGACACACGCATATATATATATA [CACACA_site8900],9.38
19,ATATATCCAAATAGATTACATATATATATATAGATA [TGCATGCA_negctrl_site277],6.34
20,AAATAAGAACATAGAATGCACTTTTTTTTTTTTTCC,7.03
21,AACATTATAAGACACACACACACATATATAAATATA [CACACA_site6622],6.99
22,ATATATTTATATATTGCACACAAAAAAAAAAAAAAA [CACACA_site8468],10.5

row,Sequence,gcPBM binding intensity (ln)
1,GTATATATACATAAATGTACATATATATAAAAAATG [XGTACX_site3271],6.41
2,AATATATAAGTCTACTGTACCCAAAATAAAATTTAT [XGTACX_site8727],6.18
3,TTCATTTTAATAATATGTACATAATATATTTAAAAA [XGTACX_site634],6.47
4,GTATATATATTTGTACGTACATATTGTTGTAAACAC [XGTACX_site8833],6.87
5,TTTTTTATTGTGATACGTATATTATTTTATGATTAA [GTGCAC_negctrl_site202],6.82
6,AAGAGAGACATCAACACACATACGTATGTATAGAAA [CACACA_site1397],6.5
7,TATATTTATGTATATGTGCACATAAATTTAAGAATG [GTGCAC_site9512],10.9
8,ATAGCCAAAAATCATGCACACCTAAAAAAAAAAAAA [CACACA_site8826],8.39
9,CGTATGCGTATATACACACCCACGTATATATATAAA [CACACA_site3200],6.66
10,ATTTTTAATCATTTACAACCTAGTGATTATACAAAT [CACACA_negctrl_site1089],6.4
11,ATATAATAATTGTACACATGCACACACAAATATTAT [TGCATGCA_site204],8.83
12,AAGGAATATTAAGTGGGTACTAAAAAAAAATTAATT [XGTACX_site331],6.53
13,TTAAAGCACCCATGCACACACACAAGGGAAAAGAAA [CACACA_site4289],8.12
14,TTTTTAATTAACTTTGTAAACTTATATATATATATA [TGCATGCA_negctrl_site311],9.25
15,TGTATATAGAAACATACACACATATTAATTTTACAT [CACACA_site3126],6.51
16,TTTTTTATTAAAAGCGAAAAAAATGAAAACTTTTTT [GTGCAC_negctrl_site605],5.98
17,GGGGGTAGGGGAAGAAGTACAATGATCACTACAGTA [XGTACX_site1169],7.85
18,TCCAATTAAATATATGAACACACATGTGAACTTTCT [CACACA_site9318],6.32
19,TTAAGTCATAAATAAAGTACATAAATATAATATATA [XGTACX_site6304],6.12
20,ATGTAAATGTTATTATGTACATATTTATTCTTCAAA [XGTACX_site7377],6.43
21,TTTTTTCTTTAATACTCAATATGATAAAAGTAACAC [XGTACX_negctrl_site163],6.52
22,AAAGTTTTTACCAAGTGTACATATATATATATATAT [XGTACX_site5786],9.33

row,Sequence,gcPBM binding intensity (ln)
1,GTTAAAATTTGTCAATGTACAGAAATAATAAAAAAA [XGTACX_site1879],6.75
2,GTTTATTTATTTTATGTGCACATATAACAAAAAAAA,10.7
3,TATTTTTTTTAGCGTACATGCAAAAAAAAAAAAAAA [TGCATGCA_site555],6.33
4,GACCCAATGAAAAGGTCACACATTTTTTCTTTTCGA [CACACA_site5074],5.84
5,AAAAATAAAAAGAATTGTACATATAAATCATATACA [XGTACX_site6860],5.86
6,TAAAAATATATAAACAGTACATAAATTAAATAAATA [XGTACX_site6962],6.44
7,ATTTTGTATATATTTTGTACATATTTTGTATATATT [XGTACX_site885],6.64
8,AAATATTATACAAAAAAAAAAAAAAAAAAAATATAT [CACACA_negctrl_site52],6.16
9,TTGTTTTTAAGAAAAACACACACTCCTGTTATTTTA [CACACA_site9230],6.19
10,GTATGTATAATATACACACTCACAAGCATTCAAATA [CACACA_site267],6.51
11,ATATAAACATGTTTGTGTACGTAATATGAAAAATAA [XGTACX_site8157],7.22
12,TTAGGACAAAAAAAAATAAAAATAAAATAAAATAAT [CACACA_negctrl_site1613],6.42
13,ATTTTTTTTTTTATAGTGGAACCACATTTGCCATTT [CACACA_negctrl_site1247],6.47
14,TATTAAATGAAACAAACACACATAGCCTTTAAATAT [CACACA_site1560],6.62
15,ATATATATATCATATTGTACATATTATTGTATAATC [XGTACX_site5020],8.16
16,AAATTATATATATTTACATGCAATATAATGAAATAA [TGCATGCA_site229],6.46
17,ATAAAATAAAACAGAGCACACATTTTATTTACATTC [CACACA_site696],6.74
18,TACACATACAGACATACACACATACACATATACACA [CACACA_site6918],7.13
19,AAAAAAAAAAAAAACACACACACACGCACATATACA [CACACA_site7288],6.98
20,CCACTTGTGTAATGTTGTACAAAAATAAATATATTT [XGTACX_site4598],6.68
21,CTATGAACACACACATGTACATATATTAACTCGCTA [XGTACX_site8805],6.65
22,ATAATTAAAAATAATATATATATAATATGATATTAT [GTGCAC_negctrl_site194],6.43
